Over roughly 2,300 sequences, “median log2 fold change of GCK-ALFA target abundance (FLAG IP / Myc IP barcode read proportion)” has its median near 0.095; the lowest 2% begin near -0.47. The list shows a part of the results.
B1: LC3A_3_1456 (protein)
chain: VAELKAELTAVLTANGADAATIAAGNALLDALAAKGYEEAMQTVLDEVKKMADVPADILLDMFNDLLTIVNTEDLSEEELIAEIKREAAAAKNEAEIIEL
B2: LC3A_free_8_2521 (protein)
chain: MNQEFVDKAVEILDELEEKLVAYLKSKGASELEILEAELLIGSIIAEVISLENESPEEILKAIEDGLKELVEELSEYKEEVTELADEALKKIKEAKKKLE
B3: LC3A_3_1678 (protein)
chain: MEKLVEEALKTIKETIKDEEVQKLFEEAVKLLAERGLEEQIKALAELVKEMKDLPVEEQLEFAKYLLEVVKKAKGSREEAAKRVSEEIRTIKNDIEIEEL
B4: LC3A_28_1233 (protein)
chain: MTPEEIAQRLIDEAKKKIAAGEKVIVIKITAEEAKPENVDAIVAAIKEIAALANAAGGVAIIIDLDSKVDEESRNKIIDAAEEAEKEYPNVTIIIAISDD
B5: LC3A_free_39_2248 (protein)
chain: SAEELAAARAALAAVAATLDPEAQAAAAELAAALADDPEALRIVTEGLRRLQAEGGDVLAFLQELLALVREAQAAGLSPEELAERLRELAEDFLNLLPLD
B6: LC3A_28_641 (protein)
chain: MEIEKKLEEALKKAKEAREKGEATVIELTLDGNATQEDVEKVIKALEEIAKILESVPGSAIIINVTGNVKQEHIDKLADAAEEIEKKYPNVTVILALEEK
B7: LC3A_28_1264 (protein)
chain: AATDAAIAAFNAAVDAALAAGEAATITLKVSADATQADIDKINEALKANAAKLASIPGQSIIIDVAGGVAQENIDKLAEAAEEIEEKTKNVTVIIALDEN
B8: LC3A_127_217 (protein)
chain: LLEEALKKLEEAEKLLLELVEDDSIDREEALKKAKKLLKEALKLAKKAGAPEEVLKDLEEAEELVEEMFELDEEERKEAAERASLLVDGAIIEIESILLK

target: MAP1LC3A, Q9H492; assay: median log2 fold change of GCK-ALFA target abundance (FLAG IP / Myc IP barcode read proportion) (log2 ratio); each designed protein is fused to an ALFA-tag nanobody in HEK293 cells to bring the named protein to FLAG-tagged glucokinase (GCK); Myc marks an untargeted standard; higher = target protein stabilised (more abundant); settings: target protein: 3xFLAG-MCP-GCK-ALFA reporter; HEK293 landing pad (RPLP)
Procedure, shortened: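 Binders fused to an ALFA nanobody were recombined as a library into HEK293 landing-pad cells, which were induced with 2 μg mL^−1 doxycycline and then transfected to express a FLAG-tagged target and a Myc-tagged standard. After 48 h, circular RNA barcodes recovered by anti-FLAG and anti-Myc immunoprecipitation of lysates were reverse transcribed, amplified and sequenced. Each binder's target abundance is the median log2 ratio of FLAG to Myc barcode read proportions, from barcodes present at ≥10^−7 in both replicates, binders carrying ≥3 barcodes per replicate, a 10^−6 pseudocount and pooled replicates.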

Binder | median log2 fold change
B1 | 0.238
B2 | -0.131
B3 | 0.242
B4 | 0.277
B5 | 0.192
B6 | 0.16
B7 | 0.263
B8 | -0.0169

From the supplement of paper PMC12632987
